In PubChem BioAssay AID588342 (National Center for Advancing Translational Sciences (NCATS), 2011):
Screen size: about 360,000 compounds; about 25,000 (6.9%) were called active. This list was built around the results that the source calls inconclusive (neither active nor inactive); the mix of calls is not that of the screen. Calls follow the shape of the dose curve; as a rule, active = well fitted inhibition curve with a large enough effect; inconclusive = small, poorly fitted or top-dose-only effect; inactive = flat fitted curve, though single readings scatter. Potencies of inconclusive entries are doubtful fits and often do not repeat.
Also: nearly all actives have a fitted effect of over 55% in size.
Potency is read from the fitted curve at half-maximal effect; tags tell the direction and shape of the fitted curve.

These compounds were tested against Luciferin 4-monooxygenase (Photinus pyralis) (UniProt P08659) (assay: qHTS profiling assay for firefly luciferase inhibitor/activator using purifed enzyme and Km concentrations of substrates (counterscreen for miR-21 project)). Details: purified FLuc, luminescence inhibition; series mostly up to 57.5 µM.
Sequence of UniProt P08659 (P08659 whole entry, looked up): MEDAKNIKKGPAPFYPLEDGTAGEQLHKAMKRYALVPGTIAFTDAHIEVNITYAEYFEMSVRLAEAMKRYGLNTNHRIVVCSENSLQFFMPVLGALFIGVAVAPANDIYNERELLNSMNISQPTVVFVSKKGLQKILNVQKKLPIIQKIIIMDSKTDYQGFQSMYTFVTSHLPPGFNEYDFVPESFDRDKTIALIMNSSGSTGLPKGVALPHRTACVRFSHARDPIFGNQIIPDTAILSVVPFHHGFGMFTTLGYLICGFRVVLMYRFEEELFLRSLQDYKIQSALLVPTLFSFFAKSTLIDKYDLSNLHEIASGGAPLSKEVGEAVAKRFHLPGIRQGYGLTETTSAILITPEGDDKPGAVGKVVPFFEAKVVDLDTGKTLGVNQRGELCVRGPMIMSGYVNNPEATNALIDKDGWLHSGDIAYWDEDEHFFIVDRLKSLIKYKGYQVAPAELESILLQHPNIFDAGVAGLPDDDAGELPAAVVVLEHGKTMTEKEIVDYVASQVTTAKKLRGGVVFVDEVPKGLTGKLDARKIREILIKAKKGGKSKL
Procedure, shortened: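 Purified P. pyralis luciferase (10nM final) with 10uM D-luciferin and 10uM ATP (Km levels) in 50mM Tris acetate pH 7.5, 10mM Mg acetate, 0.01% Tween-20, 0.05% BSA; qHTS 6-point titration, ~60 µM downward; luminescence read.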
For `COc1ccc(-c2[nH]c(-c3ccccc3)nc2SCC(=O)NC2CCCC2)cc1`, the Potency was “inactive”.
With `Cc1nc(C)c(CCNC(=O)c2ccc(C(F)(F)F)cc2)s1` the Potency was inconclusive: 23.9 µM [inhibitor, partial curve].
`CCOC(=S)SCc1cn2cccc(C)c2n1` was tested, and the Potency was inconclusive: 26.9 µM [inhibitor, partial curve, poor fit].
With `COc1cccc(NC(=O)C(=O)NCCc2sc(-c3cccc(C)c3)nc2C)c1` the Potency was inconclusive: 23.9 µM [inhibitor, partial curve].
For `COc1cccc(NC(=O)[C@H](NC(=O)[C@@H]2Cc3ccccc3CN2)c2ccccc2)c1`, the Potency was inconclusive: 26.9 µM [inhibitor, single point].
For `O=S1(=O)c2ccccc2N(Cc2ccccc2Cl)c2ccccc21`, the Potency was inconclusive: 7.57 µM [inhibitor, partial curve, poor fit].
With `COc1ccc(S(=O)(=O)Nc2cc(C(C)C)c(O)cc2C)cc1` the Potency was “inactive”.
In the case of `O=C(Nc1nccs1)c1cn(-c2ccccc2)nc1-c1ccccc1`, the Potency is reported as inconclusive: 26.9 µM [inhibitor, single point].
With `Cc1cc(C(=O)Nc2ccc3[nH]ccc3c2)no1` the Potency was active: 10.7 µM.
With `CC(/C=N/NC(=O)Cc1cccn1C)=C\c1ccccc1` the Potency was active: 10.7 µM.
For `Nc1nnc(SCCCC(=O)c2ccccc2)s1`, the Potency was inconclusive: 37.9 µM [inhibitor, partial curve, poor fit].
For `Cc1ccccc1OCc1nc2c3cnn(-c4ccccc4Br)c3ncn2n1`, the Potency was inconclusive: 23.9 µM [inhibitor, partial curve].
`CCn1cc2nc(SCc3cc(C)ccc3C)n(Cc3ccc(C)cc3)c(=O)c2n1` was tested, and the Potency was “inactive”.
With `Cc1oc(-c2ccccc2F)nc1Cn1c(SCc2ccccc2F)nc2ccncc21` the Potency was inconclusive: 16.9 µM [inhibitor, partial curve].
With `CC(NC(=O)CCNC(=O)c1ccc(Br)cc1)c1ccc(-n2ccnc2)cc1` (configuration not stated) the Potency was “inactive”.
For `Cn1ncc2c(O/N=C(\N)c3ccc(C(C)(C)C)cc3)ncnc21`, the Potency was active: 15.1 µM.
`COc1ccccc1CNC(=O)c1ccc(-c2ccccc2C(F)(F)F)o1` was tested, and the Potency was “inactive”.
For `COc1ccc(OCc2nnc(SCC(=O)N3C(C)CCCC3C)o2)cc1` (configuration not stated), the Potency was “inactive”.
With `O=C(O)c1cc(N/N=C/c2ccc3c(c2)OCO3)ccc1Cl` the Potency was active: 0.757 µM.
For `CC(=O)c1sc(NC(=O)CCOc2ccccc2)nc1C`, the Potency was inconclusive: 26.9 µM [inhibitor, single point].
With `Cc1ccc2nc(NC(=O)c3cc(-c4ccco4)nc4ccccc34)sc2c1` the Potency was inconclusive: 6.01 µM [inhibitor, partial curve].
With `O=C1N=C(N2CCN(c3ccccc3)CC2)S/C1=C/c1ccco1` the Potency was inconclusive: 26.9 µM [inhibitor, partial curve].
`CC(=O)N1c2ccc(S(=O)(=O)NCCC(=O)NCc3ccc(N(C)C)cc3)cc2CC1C` (configuration not stated) was tested, and the Potency was “inactive”.
`Cc1nc2ccc(C(C(F)(F)F)(C(F)(F)F)C(F)(F)F)cc2[nH]1` was tested, and the Potency was inconclusive: 23.9 µM [inhibitor, single point].
For `COc1ccc(/C=C/c2nnc(NC(C)=O)s2)cc1`, the Potency was active: 1.9 µM.
With `COc1ccc2c(c1)[nH]c1c(=O)n(CCc3cnc[nH]3)cnc12` the Potency was inconclusive: 37.9 µM [inhibitor, partial curve, poor fit].
In the case of `CN(C)CCNC(=O)Cc1ccc(NC(=O)N2CCCCc3ccccc32)cc1`, the Potency is reported as “inactive”.
With `c1ccc(CSc2nnc(-c3ccco3)n2Cc2ccco2)cc1` the Potency was inconclusive: 26.9 µM [inhibitor, partial curve, poor fit].
`O=C(CN1CCCCCC1)Nc1ccc([N+](=O)[O-])cc1Br` was tested, and the Potency was inconclusive: 37.9 µM [inhibitor, partial curve, poor fit].
`CCN1CCN(S(=O)(=O)c2ccc(Cl)c(C(=O)NCCc3ccccc3)c2)CC1` was tested, and the Potency was inconclusive: 23.9 µM [inhibitor, single point].
With `N/C(=N\S(=O)(=O)c1cc(C(F)(F)F)cc(C(F)(F)F)c1)c1ccccc1` the Potency was “inactive”.
For `CCOC(=O)N1CCN(C(=O)c2noc3c2COc2ccccc2-3)CC1`, the Potency was active: 13.5 µM.
For `COc1ccc(C(=O)OCC(=O)N(C)C2CCS(=O)(=O)C2)cc1S(=O)(=O)N1CCCc2ccccc21` (configuration not stated), the Potency was inconclusive: 37.9 µM [inhibitor, partial curve, poor fit].
In the case of `Cc1ccc2nc(N3CCN(C(=O)C4COc5ccccc5O4)CC3)sc2c1` (configuration not stated), the Potency is reported as active: 8.49 µM.
`N/C(=N\OC(=O)c1ccc2c(c1)OCO2)c1ccc([N+](=O)[O-])cc1` was tested, and the Potency was inconclusive: 8.49 µM [inhibitor, partial curve].
In the case of `CCOC(=O)c1c(C)nc(C)c2c(=O)oc3ccccc3c12`, the Potency is reported as active: 16.9 µM.
`Cc1cccc(OCc2cc(-c3ccccc3)no2)c1C` was tested, and the Potency was active: 12 µM.
`Nc1nnc(CSCc2cccc(Br)c2)s1` was tested, and the Potency was inconclusive: 37.9 µM [inhibitor, partial curve, poor fit].
With `COc1ccc(-c2nc3ccccc3o2)cc1NC(=O)c1ccc(N2CCC(C)CC2)c([N+](=O)[O-])c1` the Potency was inconclusive: 13.5 µM [inhibitor, partial curve, poor fit].
`CCCCSCc1nc2ccccn2c1Br` was tested, and the Potency was inconclusive: 26.9 µM [inhibitor, partial curve, poor fit].
In the case of `O=C(N/C(=C\c1ccc(Br)cc1)C(=O)N1CCOCC1)c1ccc([N+](=O)[O-])cc1`, the Potency is reported as “inactive”.
With `CCCc1cc(C(=O)N2CCCC(N3CCN(c4ccccc4F)CC3)C2)n(C)n1` (configuration not stated) the Potency was “inactive”.
`COc1ccc(Cl)cc1NC(=O)CSc1nc2sccc2c(=O)[nH]1` was tested, and the Potency was inconclusive: 23.9 µM [inhibitor, partial curve].
`Cc1ccc2c(NC(=O)c3ccc(Br)o3)cccc2n1` was tested, and the Potency was “inactive”.
With `c1cc(Nc2ncnc3sccc23)cc(-c2nnc3n2CCCCC3)c1` the Potency was inconclusive: 30.1 µM [inhibitor, single point].
In the case of `COc1cccc(NC(=S)NNC(=O)c2ccccc2OC(F)F)c1`, the Potency is reported as inconclusive: 37.9 µM [inhibitor, partial curve, poor fit].
`Cc1ccc(S(=O)(=O)N[C@H](C(=O)OCn2nnc3ccccc3c2=O)C(C)C)cc1` was tested, and the Potency was “inactive”.
For `N#Cc1c(-c2ccccc2)ccnc1Oc1ccccc1`, the Potency was inconclusive: 16.9 µM [inhibitor, partial curve].
For `COC(=O)c1ccc(NC(=O)C2CCCO2)cc1` (configuration not stated), the Potency was inconclusive: 30.1 µM [inhibitor, partial curve, poor fit].
In the case of `Clc1ccc(-c2ccc(SCc3ccccn3)nn2)cc1`, the Potency is reported as inconclusive: 6.01 µM [inhibitor, partial curve].
`COC(=O)c1ccccc1NC(=O)CSc1nc2sc3c(c2c(=O)[nH]1)CCCC3` was tested, and the Potency was inconclusive: 8.49 µM [inhibitor, full curve].
For `COCCCNC(=O)Cn1c(=O)n(-c2cccc(C)c2)c(=O)c2c3c(sc21)CN(C(C)=O)CC3`, the Potency was “inactive”.
`c1ccc(CCNc2ccccc2)cc1` was tested, and the Potency was inconclusive: 37.9 µM [inhibitor, single point].
For `Fc1ccc(CCN2CCN=C2Nc2ccccc2)cc1`, the Potency was “inactive”.
In the case of `N/C(=N\OC(=O)CCC1CCCC1)c1cccc([N+](=O)[O-])c1`, the Potency is reported as active: 9.53 µM.
For `Cc1ccc(-n2c(=O)[nH]c3c(oc4ccccc43)c2=O)cc1`, the Potency was inconclusive: 37.9 µM [inhibitor, partial curve, poor fit].
With `COc1ccc(NC(=O)c2cc3ccccc3cc2O)cc1` the Potency was active: 0.953 µM.
`O=C(c1ccc(-n2cncn2)c([N+](=O)[O-])c1)N1CCN(S(=O)(=O)c2cccc(F)c2)CC1` was tested, and the Potency was “inactive”.
In the case of `Cc1cc2n(n1)SC(Nc1ccc(F)c(Cl)c1)N2` (configuration not stated), the Potency is reported as inconclusive: 21.3 µM [inhibitor, single point].
In the case of `O=C(Nc1ccc2c(c1)OCO2)c1c(Cl)nc2sccn12`, the Potency is reported as inconclusive: 7.57 µM [inhibitor, full curve].
`NS(=O)(=O)c1cc(C(=O)OCC(=O)c2ccccc2)c(Cl)cc1Cl` was tested, and the Potency was inconclusive: 26.9 µM [inhibitor, partial curve, poor fit].
For `CCn1nc(NC(=O)c2cccs2)c2cc3ccccc3nc21`, the Potency was inconclusive: 21.3 µM [inhibitor, single point].
With `O=C(Cn1c(=O)oc2ccccc21)NCc1ccccc1Cl` the Potency was inconclusive: 21.3 µM [inhibitor, partial curve, poor fit].
In the case of `O=C(CSc1nc(-c2ccco2)nc2cc(=O)[nH]n12)Nc1ccccc1Cl`, the Potency is reported as inconclusive: 37.9 µM [inhibitor, partial curve, poor fit].
`CCOC(=O)c1ccc(NC(=O)NCCc2cnc[nH]2)cc1` was tested, and the Potency was inconclusive: 21.3 µM [inhibitor, single point].
With `O=C(NCCC1CCCCN1S(=O)(=O)c1cccs1)C(=O)Nc1ccc(F)cc1` (configuration not stated) the Potency was inconclusive: 13.5 µM [inhibitor, partial curve, poor fit].
`Cc1ccc(NC(=O)OCc2cc(-c3ccccc3)on2)cc1` was tested, and the Potency was inconclusive: 26.9 µM [inhibitor, partial curve].
With `CC#CC#Cc1cccc(=O)o1` the Potency was “inactive”.
With `COc1ccc(-n2c(-c3ccc(F)cc3)cn3c4c(=O)n(C)c(=O)n(C)c4nc23)cc1` the Potency was “inactive”.
`CC1CCN(C(=O)COc2cccc3c2CCN(C)C3=O)CC1` was tested, and the Potency was “inactive”.
With `CC(C)(C)NC(=S)N/N=C\c1ccc(-c2ccc([N+](=O)[O-])cc2)o1` the Potency was inconclusive: 23.9 µM [inhibitor, partial curve, poor fit].
`N#C/C(=C\c1ccc(Cl)cc1Cl)c1n[nH]c(Cn2cncn2)n1` was tested, and the Potency was inconclusive: 9.53 µM [inhibitor, partial curve].
